Data as given in PubChem BioAssay AID662 (National Center for Advancing Translational Sciences (NCATS), 2007).
About 1,800 (2.5%) of roughly 71,000 compounds were called active. Inconclusive results, whose numbers are uncertain, are shown with a selection of clear calls. Calls come from the whole dose curve; as a rule, active = well fitted activation curve with a large enough effect in the signal ratio, with a control signal flat (not every such curve was filed as active); inconclusive = small, poorly fitted or top-dose-only effect, or effect the other way, or a change in a side signal; inactive = flat fitted curve, though single readings scatter; the % refers to the signal ratio. Potencies beside an inconclusive call are fits to weak or partial responses and may not hold up.

Test: Cell signaling CRE-BLA (Fsk stim); for activity change, negative = inhibition: % of control where 0% means no effect
Settings: CHO CRE-bla reporter (cAMP response element driving beta-lactamase), forskolin EC10, beta-lactamase ratio; activity change, negative = inhibition: at 38.2 µM (top of the series) unless noted
Method in brief: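 Modulation of forskolin signalling: compounds in titration series added with EC10 NKH 477 to CHO cells carrying a CRE-driven beta-lactamase reporter, 3 h, 37C. CCF4 FRET ratio (460/530 nm, ex 405 nm) gives %activity and AC50.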
Potency is the fitted concentration of half-maximal effect; tags give direction and shape of the fitted curve.

| Structure (SMILES) | activity change, negative = inhibition | Potency |
| --- | --- | --- |
| Nc1cc(C(=O)O)[nH]c(=O)n1 | inactive: -5.03% [at 7.6 µM] | – |
| COc1c(F)c(F)c(C(=O)Nc2ccc3oc(-c4ccncc4)nc3c2)c(F)c1F | – | inactive |
| O=c1c2cnn(-c3ccccc3)c2ncn1Cc1ccccc1 | – | inactive |
| Cc1ccc(CNC(=O)c2coc(=O)c3ccccc23)o1 | inconclusive: 0.527% | – |
| COc1cccc(-c2nc(-c3ccccc3)no2)c1 | inconclusive: 6.43% | – |
| CCOC(=O)c1cnc(-n2nc(C)cc2C)nc1N1CC(C)OC(C)C1 (stereo not drawn) | – | inconclusive: 15.8 µM [rising, single point] |
| CCCC[C@@H]1C[C@H]1C(NC(=O)c1ccc(C(F)(F)F)cc1)c1ccc(C(=O)OC)cc1 (stereo partly drawn) | – | inconclusive: 1.26 µM [rising, partial curve] |
| Cc1cc(C)c2[nH]c(=O)c(C(c3nnnn3C(C)(C)C)N3CCN(C(=O)c4ccco4)CC3)cc2c1 (stereo not drawn) | – | inconclusive: 5.01 µM [rising, single point] |
| c1ccc(-c2nc(NCCCN3CCOCC3)c3ccccc3n2)cc1 | inconclusive: 22.9% | – |
| Cc1cc(C)n2cc(CSc3nc4cc(Cl)ccc4o3)nc2n1 | – | inconclusive: 2 µM [rising, partial curve] |
| CC(C)OC(=O)CSc1nnc(CNc2nc(-c3ccccc3)cs2)n1C | – | inactive |
| CCNC(=O)CSc1nc2ccccc2c(=O)n1OC | inconclusive: 21.5% | – |
| CCCCc1cc(=O)oc2c(CN(C)C)c(O)ccc12 | – | inconclusive: 10 µM [rising, partial curve] |
| O=c1c(-c2ccccc2)nc2cncnc2n1Cc1ccccc1Cl | inconclusive: 27.8% | – |
| c1csc(-c2nnc(-c3ccc(N4CCOCC4)cc3)o2)c1 | – | inactive |
| N#Cc1c(/N=C/c2ccco2)sc2c1CCC2 | – | inactive |
| OC(COc1cccc(OCC(O)CN2CCOCC2)c1)CN1CCOCC1 (stereo not drawn) | – | inconclusive: 3.98 µM [rising, single point] |
| COc1ccccc1-c1ccc(=O)n(CC(=O)NCc2ccc3c(c2)OCO3)n1 | – | inactive |
| CCN1CCN(Cc2c(O)ccc3c(=O)c(-c4ccccc4OC)coc23)CC1 | – | inactive |
| Cc1ccc(-c2cc(C(=O)NCc3ccco3)c3ccccc3n2)o1 | inconclusive: 1.08% | – |
| CCOc1ccc(S(=O)(=O)NCCC(=O)OCN2C(=O)c3ccccc3C2=O)cc1 | – | inconclusive: 3.16 µM [falling, single point] |
| CCOC(=O)c1cc2c(ccn2-c2ccc(F)cc2)n1CC(=O)N1CCN(C(=O)c2ccco2)CC1 | – | inconclusive: 2 µM [rising, partial curve] |
| O=C(O)CC(C(=O)O)C(CC(=O)O)C(=O)O (stereo not drawn) | – | inactive |
